Measurements as given in PubChem BioAssay AID485294 (National Center for Advancing Translational Sciences (NCATS), 2010).
The campaign covered roughly 370,000 compounds. About 150 (0.041%) were called active. The inconclusive results got no clear call from the source; some entries with a clear call stand among them for comparison. Calls follow the shape of the dose curve; as a rule, active = well fitted inhibition curve with a large enough effect; inconclusive = small, poorly fitted or top-dose-only effect; inactive = flat fitted curve, though single readings scatter. No potency is given beside an inconclusive call; the fits are too rough.

target: Beta-lactamase (Escherichia coli (strain K12)) (UniProt P00811); assay: qHTS Inhibitors of AmpC Beta-Lactamase (assay with detergent); details: AmpC hydrolysis of nitrocefin, absorbance 480 nm, 0.01% Triton; activity change, negative = inhibition: at 114 µM (top of the series); also: nearly all actives have a fitted effect of over 25% in size;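 as to activity change, negative = inhibition: 0% = no-compound wells and -100% = no-enzyme wells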
UniProt P00811, sequence (P00811 whole entry, looked up): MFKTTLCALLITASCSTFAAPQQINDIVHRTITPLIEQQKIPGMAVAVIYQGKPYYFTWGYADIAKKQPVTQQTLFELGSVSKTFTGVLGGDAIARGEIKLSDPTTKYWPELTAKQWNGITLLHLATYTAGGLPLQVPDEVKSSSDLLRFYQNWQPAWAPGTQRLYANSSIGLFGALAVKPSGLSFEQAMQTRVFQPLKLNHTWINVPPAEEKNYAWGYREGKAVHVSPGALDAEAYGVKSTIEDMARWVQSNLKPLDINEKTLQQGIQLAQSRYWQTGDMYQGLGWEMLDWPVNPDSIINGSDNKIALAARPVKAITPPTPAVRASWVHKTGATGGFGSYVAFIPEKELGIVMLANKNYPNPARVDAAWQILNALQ
Outline: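 20 mM phosphate pH 7.0 + 0.01% (detergent screen) or 0.0001% Triton X-100; 5.3 nM AmpC reagent; cpd preinc 15 min RT; nitrocefin (800 uM stock) to start; A480 q20 s × 4 min; Activity was normalised to no-enzyme and no-compound control wells.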
Potency is read from the fitted curve at half-maximal effect; tags tell the direction and shape of the fitted curve.

SMILES | activity change, negative = inhibition | Potency
CSc1nnc(NC(=O)c2nc(S(=O)(=O)Cc3cccc(C)c3)ncc2Cl)s1 | inactive: 10.6% | 
O=S(=O)(c1ccc(NCCCO)nc1)N1CCOCC1 |  | inconclusive [inhibitor, partial curve, poor fit]
COCCn1c(SCC(=O)Nc2cc(C)on2)nc2cc(Cl)ccc2c1=O |  | inconclusive [inhibitor, full curve, poor fit]
O=C(Cc1ccccc1)NC(NCCc1ccccc1)C(Cl)(Cl)Cl (configuration not stated) |  | inconclusive [inhibitor, full curve, poor fit]
COC(=O)c1cc2c(-c3ccccc3)c(C)c3ccccn3c-2c1C(=O)OC | inactive: -2.25% | 
CC(C)CC(=O)Nc1nnc(S(=O)(=O)N2c3ccccc3CC2C)s1 (configuration not stated) | inactive: 27.7% | 
CCOC(=O)c1cccc(NC(=O)CN(C)S(=O)(=O)c2cnc[nH]2)c1 |  | inconclusive [inhibitor, single point]
N/C(=N\OC(=O)C12CC3CC(CC(C3)C1)C2)c1ccccc1 | inactive: 5.33% | 
CCC(=O)N(CCC(Cc1ccccc1)c1ccco1)Cc1ccco1 (configuration not stated) | inactive: 2.23% | 
CCn1ccnc1CN(C)C(=O)c1cc(COc2ccccc2SC)on1 |  | inconclusive [inhibitor, full curve, poor fit]
COc1ccc(CNC/C=C/c2ccccc2)cc1 | inactive: 0.342% | 
O=C(Nc1cccc(C(=O)NC2CCCCC2)c1)c1ccccc1 | inactive: -2.49% | 
CCOC(=O)C1CCCN(C(=O)c2ccc(S(=O)(=O)NCc3ccco3)cc2)C1 (configuration not stated) |  | inconclusive [inhibitor, single point]
Cc1ccc(OCC(=O)OCCN2C(=O)c3ccccc3C2=O)cc1C |  | inconclusive [inhibitor, partial curve]
Cc1c(Br)c(C(F)(F)F)nn1CC(=O)NCC1CCCO1 (configuration not stated) |  | inconclusive [inhibitor, partial curve, poor fit]
COc1ccc2[nH]c(-c3cccc(F)c3)cc(=O)c2c1 |  | inconclusive [inhibitor, full curve, poor fit]
COc1ccc(NC(=O)CN2C(=O)/C(=C3\SC(=S)N(C4CCS(=O)(=O)C4)C3=O)c3ccccc32)cc1 (configuration not stated) | inactive: -4.6% | 
CN1CCN(c2ccc(S(=O)(=O)N3CCCCC3)cn2)CC1 |  | inconclusive [inhibitor, full curve, poor fit]
CCOc1cc(C=O)ccc1OCCCN1C(=O)NC(C)(C)C1=O |  | inconclusive [inhibitor, full curve, poor fit]
CC(=O)c1ccc(Nc2cc(C)nc3nc(Cc4ccccc4)nn23)cc1 | inactive: 19.3% | 
Cc1nc2scc(-c3ccccc3)c2c(=O)n1/N=C/c1ccco1 |  | inconclusive [inhibitor, full curve, poor fit]

SMILES | activity change, negative = inhibition | Potency
CCn1c(=NC(=O)c2ccco2)sc2cccc(F)c21 |  | inconclusive [inhibitor, full curve, poor fit]
COc1ccc(-n2c(=O)c3c4c(sc3n(Cc3ccccc3C)c2=O)CCCC4)c(OC)c1 |  | inconclusive [inhibitor, single point]
CC(=O)Oc1c(C(=O)c2nnc(C)o2)c(=O)n(C)c2ccccc12 |  | inconclusive [inhibitor, partial curve]
COc1ccc(C2CC(c3ccc(C)cc3)=NN2C(=O)CCC(=O)O)cc1OC (configuration not stated) |  | inconclusive [inhibitor, full curve, poor fit]
N/C(=N\c1nc2c(c(=O)[nH]1)CCC2)Nc1ccccc1C(F)(F)F |  | inconclusive [inhibitor, full curve, poor fit]
CCCNC(=O)Cn1c2ccccc2c2nc(=O)cc(C)n21 |  | inconclusive [inhibitor, partial curve]
Cc1ccc(C)c(N(C(=O)CCC(=O)Nc2cc(C)on2)C(C(=O)NC2CCCC2)c2ccco2)c1 (configuration not stated) |  | inconclusive [inhibitor, full curve]
COc1ccc(N2CCN(C(=O)c3ccc(NS(=O)(=O)c4ccc(F)cc4)cc3)CC2)cc1 |  | inconclusive [inhibitor, full curve, poor fit]
COc1ccc(NC(=O)Nc2cc(C)ccc2OC(F)F)c(OC)c1 |  | inconclusive [inhibitor, partial curve]
O=C(NCc1ccco1)c1ccccc1NC(=O)C1CC(=O)N(c2ccc(Cl)cc2)C1 (configuration not stated) | inactive: -12.5% | 
Cc1ccc2oc(-c3cccc(NC(=O)/C=C/c4cccc([N+](=O)[O-])c4)c3C)nc2c1 |  | inconclusive [inhibitor, partial curve, poor fit]
CC1CC(C)(C)Nc2ccc(OC(=O)c3ccco3)cc21 (configuration not stated) | inactive: -0.418% | 
O=C(NC(=O)c1ccccc1F)Nc1nc(-c2cccs2)cc(C(F)(F)F)n1 |  | inconclusive [inhibitor, partial curve, poor fit]
CCOC(=O)C1=C(C)Nc2ncnn2C1c1ccc2c(c1)OCO2 (configuration not stated) |  | inconclusive [inhibitor, single point]
CCCNc1c(NS(=O)(=O)c2ccc(C3CCCCC3)cc2)c(=O)oc2ccccc12 |  | inconclusive [inhibitor, full curve]
CCOC(=O)C1=C(C)NC(=O)NC1/C(C)=C/c1ccccc1 (configuration not stated) |  | inconclusive [inhibitor, partial curve, poor fit]
CCOc1ccc(C(=O)Nc2ccc3c(c2)C(=O)NC3=O)cc1 |  | inconclusive [inhibitor, partial curve, poor fit]
CC1(C)CC(=O)C2=C(C1)Nc1ccccc1NC2c1ccc2c(c1)OCO2 (configuration not stated) |  | inconclusive [inhibitor, full curve, poor fit]
COc1cc(CN2CCNC(=O)C2CC(=O)N2CCCO2)cc(OC)c1 (configuration not stated) | inactive: -5.76% | 
CCCCNC(=S)NNC(=O)c1c(Cl)c(C)nn1C |  | inconclusive [inhibitor, partial curve]
CCCn1nc(C(=O)OCC(=O)Nc2cccc(OC)c2)c2ccccc2c1=O |  | inconclusive [inhibitor, full curve, poor fit]
